# Results reported in article PMC4336329 (PLoS ONE, 2015).
# About 14,000 (4.5%) of roughly 310,000 compounds showed an effect of 50% or more. Effects have a minus sign here. The list shows a part of the results.
# Target: human ether-à-go-go-related gene (hERG) potassium channel (human, UniProt Q12809)
# Assay: primary screen, population patch clamp on CHO cells stably expressing hERG
# 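Further: peak tail current of the secondary pulse compared with the same well before compound.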
# Chain of human ether-à-go-go-related gene (hERG) potassium channel (Q12809 whole entry, looked up): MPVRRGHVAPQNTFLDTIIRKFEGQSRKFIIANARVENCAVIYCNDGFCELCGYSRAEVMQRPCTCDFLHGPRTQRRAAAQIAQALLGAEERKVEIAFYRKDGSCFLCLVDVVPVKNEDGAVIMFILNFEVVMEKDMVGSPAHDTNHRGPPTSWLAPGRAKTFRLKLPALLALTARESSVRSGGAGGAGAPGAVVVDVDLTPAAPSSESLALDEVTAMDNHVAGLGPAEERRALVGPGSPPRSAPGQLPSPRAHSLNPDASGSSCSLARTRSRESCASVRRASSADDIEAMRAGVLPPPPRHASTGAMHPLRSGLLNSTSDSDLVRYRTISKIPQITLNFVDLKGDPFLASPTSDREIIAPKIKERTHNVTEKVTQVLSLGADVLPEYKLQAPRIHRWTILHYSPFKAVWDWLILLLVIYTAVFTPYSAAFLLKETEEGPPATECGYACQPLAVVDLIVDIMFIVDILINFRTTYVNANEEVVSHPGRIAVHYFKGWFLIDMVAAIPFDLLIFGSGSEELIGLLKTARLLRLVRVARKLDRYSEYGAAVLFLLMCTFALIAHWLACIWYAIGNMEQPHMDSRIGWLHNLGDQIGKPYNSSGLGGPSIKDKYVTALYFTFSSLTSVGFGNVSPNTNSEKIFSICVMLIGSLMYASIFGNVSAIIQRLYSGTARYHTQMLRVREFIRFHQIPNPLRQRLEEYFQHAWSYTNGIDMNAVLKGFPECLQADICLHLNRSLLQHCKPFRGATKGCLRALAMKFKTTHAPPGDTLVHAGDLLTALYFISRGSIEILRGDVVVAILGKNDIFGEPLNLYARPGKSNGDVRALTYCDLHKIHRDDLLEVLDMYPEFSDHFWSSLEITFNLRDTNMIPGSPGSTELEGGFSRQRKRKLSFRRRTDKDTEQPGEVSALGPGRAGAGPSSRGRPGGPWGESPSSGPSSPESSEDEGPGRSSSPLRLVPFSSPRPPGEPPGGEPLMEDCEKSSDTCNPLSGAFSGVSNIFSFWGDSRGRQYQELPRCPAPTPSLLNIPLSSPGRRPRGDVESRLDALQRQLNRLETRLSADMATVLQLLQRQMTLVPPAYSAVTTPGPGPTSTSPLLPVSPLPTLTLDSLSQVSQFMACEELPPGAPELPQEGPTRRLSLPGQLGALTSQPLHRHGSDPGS
row,SMILES,"hERG current change (%, negative = inhibition) at 10uM [%]"
1,CCN(CC)S(=O)(=O)c1ccc(-c2nnc(SCC(=O)Nc3cc(OC)cc(OC)c3)o2)cc1,-15.6
2,COc1ccc(/C=C(/NC(=O)c2ccc(C)cc2)C(=O)NCc2ccncc2)cc1,-66.2
3,Cc1c(Br)c([N+](=O)[O-])nn1CC(=O)NCc1cccnc1,-11.3
4,CCC(=O)c1ccc(OCC(=O)NC2CCCC2)cc1,12
5,COc1ccc(Nc2cc(Cl)nc(N)n2)cc1OC,11.9
6,Cc1nnc(NC(=O)CSc2nc(CC(C)C)nc3c2c(=O)n(C)c(=O)n3C)s1,1.56
7,O=C(OCC(=O)N1CCCc2ccccc21)c1c(F)cccc1F,10.7
8,COc1cc(CC(=O)OCC(=O)NC2CCCC2)cc(OC)c1OC,12.9
9,CCN1CCN(c2ccccc2NC(=O)c2ccc(-n3cccn3)cc2)CC1,-16.1
10,Cc1ccc(-n2c(C)nnc2SCC(=O)N2CCOCC2)cc1,21.9
11,COc1ccc(OCC(O)CNC(=O)Nc2cc(F)ccc2C)cc1 (stereo not drawn),6.46
12,COc1ccc(CN(C)C(=O)c2cccc(Oc3ccccc3)c2)c(OC)c1OC,-20.6
13,CCc1ccc(NC(=O)c2noc3c2CCCCC3)cc1,0.215
14,COc1ccc(-c2nc(C(=O)O)cs2)cc1OC,2.6
15,O=C(NCc1ccc(Cl)cc1)C(=O)NCC(c1ccco1)N1CCOCC1 (stereo not drawn),-15.9
16,CCOC(=O)N1CCN(C(=O)c2ccc(Cn3c(=S)[nH]c4cc(C(=O)OC)ccc4c3=O)cc2)CC1,15.3
17,COc1ccc(CCNC(=O)C2CCCN(S(=O)(=O)c3ccccc3)C2)cc1 (stereo not drawn),-36.5
18,O=C(COC(=O)c1ccc2ncsc2c1)Nc1cc([N+](=O)[O-])ccc1Cl,2.28
19,CC(=O)Nc1nonc1NC(=O)CSc1ccccn1,2.54

row,SMILES,"hERG current change (%, negative = inhibition) at 10uM [%]"
1,O=C1C(Cl)=C(Nc2ccc(O)cc2)C(=O)c2ccccc21,14.6
2,O=C(O)C(=O)O.O=C(c1ccccc1F)N1CCN(Cc2ccc3c(c2)OCO3)CC1,6.48
3,CCN1CNC(=S)N(c2ccccc2C)C1,9.86
4,CCCOC1CCCN(C(=O)CCc2nnc(Cc3cccc(C)c3)o2)C1 (stereo not drawn),4.16
5,OCc1ncccc1O,20
6,Cc1ccc(NC(=S)N(CCCN2CCCC2)Cc2cccn2Cc2ccc(Cl)cc2)cc1,-22.9
7,Cc1ccc(CNC(=O)c2cc3cc(Br)ccc3oc2=N)cc1,-0.565
8,COc1ccc(OC)c(S(=O)(=O)NC2CCCCC2)c1,-11.2
9,CCn1nnc(NC(=O)COc2cc(C)ccc2C(C)C)n1,-1.97
10,Cc1ccc(Cn2cc(/C=N/Nc3ccc([N+](=O)[O-])cn3)c3ccccc32)cc1,4.45
11,CN(c1cccc(Cl)c1)S(=O)(=O)c1cccc(C(=O)Nc2nc3ccccc3[nH]2)c1,1.34
12,CCCCc1nnc(NC(=O)c2ccc3[nH]c(=O)c(=O)[nH]c3c2)s1,-11.2
13,COc1cccc(/C=C2\Oc3cc(OCC(=O)N4CCC[C@H]4C(=O)O)ccc3C2=O)c1,4.68
14,COc1ccccc1C/C(N)=N/OC(=O)c1cccc([N+](=O)[O-])c1,-10.5
15,Cc1cccc(S(=O)(=O)NCC2CCCO2)c1 (stereo not drawn),12
16,CCCCCn1nc(C(=O)N(CCOC)c2c(N)n(CCCC)c(=O)[nH]c2=O)c2ccccc2c1=O,-3.44
17,CC(C)NC(=O)C(=O)NCCN1CCN(C(=O)c2ccc(C(C)(C)C)cc2)CC1,-3.01
18,O=C(NNC(=O)C1CC1)c1cc(Cl)nc2ccccc12,2.6
19,O=C(NCc1ccccc1)C1CCC(=O)N(CCCN2CCCC2=O)C1 (stereo not drawn),12.3

row,SMILES,"hERG current change (%, negative = inhibition) at 10uM [%]"
1,Cc1cccc(-c2noc(CCC(=O)NCc3ccccc3)n2)c1,-13.7
2,Cc1ccc(C(=O)N2CC3(C(C)C)CN(C(=O)c4ccc(C)cc4)CC(C(C)C)(C2)C3=O)cc1,-4.38
3,C=CCNS(=O)(=O)c1ccc(OCC(=O)OC)cc1,6.2
4,CN1CCN(Cc2cn[nH]c2-c2ccc(F)cc2F)[C@@H](c2ccccc2)C1,-18.7
5,O=C(O)c1ccccc1Nc1ccnc(C(F)(F)F)c1,14.5
6,CCOC(=O)CNS(=O)(=O)c1ccc(C(=O)O)cc1,8.42
7,O=C(CN1CCN(S(=O)(=O)c2cc(C(F)(F)F)ccc2Cl)CC1)N1CCc2ccccc2C1,-24.7
8,COc1cccc(-c2csc(N3CCN(CC(=O)Nc4ccc5c(c4)OCO5)CC3)n2)c1,2.71
9,Cc1[nH]c(=O)[nH]c(=O)c1S(=O)(=O)N1CCCC(C(=O)NCCc2ccc(Cl)cc2)C1 (stereo not drawn),-1.16
10,COc1cccc(Oc2ncnc(N)c2[N+](=O)[O-])c1,14.4
11,O=C(NCCN1CCOCC1)/C(=C\c1ccc(Br)cc1)NC(=O)c1cccs1,-67.4
12,Cc1ccccc1CC(=O)NC1CCN(C)CC1,8.62
13,Nc1ccc(N2CCN(c3ccccc3)CC2)c(F)c1,21.7
14,O=C(CCc1ccccc1)NNC(=S)NC(=O)c1ccccc1,3.71
15,OC1CCCCC1Sc1nc2ccccc2s1 (stereo not drawn),5.97
16,CCN(CC)CCN(CC(=O)N(C1CCCCC1)C1CCCCC1)C(=O)c1ccco1.O=C(O)C(=O)O,23.2
17,COc1cc(C(=O)OCC(=O)Nc2ccc(SC(F)F)cc2)cc(OC)c1OC,-55.7
18,O=C(Nc1cccc(OC(F)(F)F)c1)c1ccc(Br)o1,-38.6
19,COc1ccc(Cn2nnnc2C(CC(C)C)N2CCN(c3ccccc3)CC2)cc1 (stereo not drawn),-4.87
